Measured values from paper PMC4336329 (PLoS ONE, 2015).
Screen size: about 310,000 compounds; about 2,200 (0.71%) showed an effect of 50% or more. The effect is printed as a negative number. The list shows a part of the results.

target: human ether-à-go-go-related gene (hERG) potassium channel (human, UniProt Q12809); assay: primary screen, population patch clamp on CHO cells stably expressing hERG
Sequence (Q12809 whole entry, looked up): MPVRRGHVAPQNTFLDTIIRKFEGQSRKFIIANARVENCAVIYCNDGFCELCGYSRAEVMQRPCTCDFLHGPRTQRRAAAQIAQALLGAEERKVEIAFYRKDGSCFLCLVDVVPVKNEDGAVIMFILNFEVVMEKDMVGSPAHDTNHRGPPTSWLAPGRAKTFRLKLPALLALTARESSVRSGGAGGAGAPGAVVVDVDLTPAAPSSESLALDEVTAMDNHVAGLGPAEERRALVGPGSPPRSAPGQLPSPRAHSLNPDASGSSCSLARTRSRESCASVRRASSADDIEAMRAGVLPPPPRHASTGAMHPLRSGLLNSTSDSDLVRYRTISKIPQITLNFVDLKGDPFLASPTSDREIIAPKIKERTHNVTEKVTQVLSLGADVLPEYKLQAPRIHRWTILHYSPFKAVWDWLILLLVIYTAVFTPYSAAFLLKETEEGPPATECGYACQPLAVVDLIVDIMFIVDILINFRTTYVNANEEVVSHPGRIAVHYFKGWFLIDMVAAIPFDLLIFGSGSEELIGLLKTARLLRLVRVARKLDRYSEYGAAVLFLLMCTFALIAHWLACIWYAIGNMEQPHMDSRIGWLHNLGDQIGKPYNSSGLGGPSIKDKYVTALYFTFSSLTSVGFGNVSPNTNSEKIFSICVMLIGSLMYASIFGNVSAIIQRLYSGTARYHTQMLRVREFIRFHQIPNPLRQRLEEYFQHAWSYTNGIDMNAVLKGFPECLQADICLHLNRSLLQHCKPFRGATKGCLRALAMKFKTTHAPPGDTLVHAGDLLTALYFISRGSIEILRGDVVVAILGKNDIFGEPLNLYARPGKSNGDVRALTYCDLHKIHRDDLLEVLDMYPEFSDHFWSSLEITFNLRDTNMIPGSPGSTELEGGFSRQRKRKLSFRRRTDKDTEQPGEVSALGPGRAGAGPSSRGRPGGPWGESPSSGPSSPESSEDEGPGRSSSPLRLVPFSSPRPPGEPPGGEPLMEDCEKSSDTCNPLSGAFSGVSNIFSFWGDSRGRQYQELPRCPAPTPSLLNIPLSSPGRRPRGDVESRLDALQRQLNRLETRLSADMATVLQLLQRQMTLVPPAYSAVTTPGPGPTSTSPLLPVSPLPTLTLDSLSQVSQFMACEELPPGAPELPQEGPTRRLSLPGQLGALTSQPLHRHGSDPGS

Row | Structure (SMILES) | hERG current change (%, negative = inhibition) at 1uM [%]
1 | CC(=O)Nc1ccc(C(=O)NNC(=O)c2cccc(C)c2)cc1 | 9.86
2 | CC(=O)c1ccc(NC(=O)CSc2nnc(NC(=O)C3CC3)s2)cc1 | 3.49
3 | O=C(Nc1ccc(N2CCOCC2)nc1)c1cccs1 | 10.1
4 | CSc1nsc(SC)c1C(=O)N1CCN(S(=O)(=O)c2ccc(C)cc2)C1C (stereo not drawn) | -0.355
5 | Cc1cccc(OCCNC(=O)c2cccc(Oc3ccc(C(F)(F)F)cc3[N+](=O)[O-])c2)c1 | 0.985
6 | Cc1onc(-c2c(F)cccc2Cl)c1C(=O)OCC(=O)NC(=O)NCC(C)C | 32.5
7 | COn1c(-c2ccccc2)nc2ncccc21 | 13.5
8 | CCC(=O)N1CCc2cc(S(=O)(=O)CCC(=O)N3CCN(c4ccccc4F)CC3)ccc21 | 11.1
9 | Nn1c(Nc2ccccc2)nc2ccccc2c1=O | 7.41
10 | Cc1cc(C(=O)NNC(=S)NC(=O)/C=C/c2ccccc2Cl)n[nH]1 | 0.163
11 | CCOc1c(C)cc(-c2[nH+]cccc2O)cc1C.[Cl-] | -4.92
12 | Cc1ccc(NC(=O)Nn2cnnc2)cc1Cl | 8.39
13 | O=C(CCSc1nc(-c2ccco2)cc(C(F)(F)F)n1)NCCc1ccccc1 | 8.66
14 | Cc1ccc(Cn2cc(-c3ccccc3)nn2)cc1 | 13.1
15 | OC(CN1CCN(C(c2ccccc2)c2ccccc2)CC1)c1ccc(Br)cc1 (stereo not drawn) | 9.56
16 | COCCn1c(C)cc(O)c(C(=O)Nc2cccc(Cl)c2)c1=O | 17.3
17 | CCOC(=O)C1CCCN(C2CC(=O)N(c3ccc(N4C(=O)CC(N5CCCC(C(=O)OCC)C5)C4=O)cc3)C2=O)C1 (stereo not drawn) | 16
18 | CS(=O)(=O)N1CCN(c2ccccc2NC(=O)c2ccc3ccccc3c2)CC1 | -1.17
19 | COc1ccc(/C=C2\SC(=O)N(CCNC(=O)C3CC(=O)N(c4ccccc4)C3)C2=O)cc1 (stereo not drawn) | -1.48
20 | Cl.O=C(COc1ccc(Cl)cc1)N(c1ccccc1Cl)C1CN2CCC1CC2 (stereo not drawn) | -2.13
21 | CC(NC(=O)c1ccc(Br)cc1)C(=O)NC1=NCCS1 (stereo not drawn) | 12.7
22 | CSc1ccc(S(=O)(=O)N2CCC(C(=O)N3CCc4ccccc4C3)CC2)cc1 | -0.505
23 | Cc1cc(NC(=O)c2sc(Nc3ccc(F)cc3)nc2N)no1 | 3.66
24 | Cn1c(SCC(=O)Nc2ccccc2-c2ccccc2)nnc1-c1ccco1 | -11.5
